Data as given in PMC6664820, “Novel natural and synthetic inhibitors of solute carriers SGLT1 and SGLT2” (Pharmacology Research & Perspectives, 2019).
In all, about 1,900 compounds went through this assay and about 40 (2%) showed an effect of 50% or more. The list shows a part of the results. Residues, ends and D or L forms follow the SMILES beside them. *: point of attachment. NHCH2CH2OH = OCCN*; For = O=C*

molecular target: human SGLT1 (hSGLT1) (human, UniProt P13866); test: primary screen, percent of control activity; higher = less effect of the substance; design: single well; settings: 50 µM
Sequence (P13866 whole entry, looked up): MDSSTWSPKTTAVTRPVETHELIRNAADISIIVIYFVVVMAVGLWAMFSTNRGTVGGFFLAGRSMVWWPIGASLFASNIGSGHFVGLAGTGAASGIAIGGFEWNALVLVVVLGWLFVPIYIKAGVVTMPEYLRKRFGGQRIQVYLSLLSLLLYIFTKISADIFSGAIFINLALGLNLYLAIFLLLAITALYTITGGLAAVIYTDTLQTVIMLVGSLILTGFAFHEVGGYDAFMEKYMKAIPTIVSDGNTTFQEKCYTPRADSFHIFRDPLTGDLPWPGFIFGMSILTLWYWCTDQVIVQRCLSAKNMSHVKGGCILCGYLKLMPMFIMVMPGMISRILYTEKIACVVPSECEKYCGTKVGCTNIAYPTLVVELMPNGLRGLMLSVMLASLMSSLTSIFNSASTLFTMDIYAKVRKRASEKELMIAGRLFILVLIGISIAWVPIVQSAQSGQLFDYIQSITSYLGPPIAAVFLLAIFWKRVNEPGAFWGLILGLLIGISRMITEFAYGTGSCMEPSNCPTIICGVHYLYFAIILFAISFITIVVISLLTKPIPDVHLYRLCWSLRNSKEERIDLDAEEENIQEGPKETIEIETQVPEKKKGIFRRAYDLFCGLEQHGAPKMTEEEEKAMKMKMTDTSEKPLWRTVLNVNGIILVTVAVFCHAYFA
Summary of the method: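 Single-point screen at 50 µmol/L in CHO-hSGLT1 cells, with 160 µmol/L 1-NBD-glucose in glucose-free DMEM for 90 min at 37°C. Fluorescence from isopropanol extracts was calibrated, and CHO wild-type uptake was subtracted. Data are percent of uptake without compound.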

In order of falling “NORMALIZED SGLT1 ACTIVITY (%)” value:
1. COc1ccc2c(c1)OCc1c-2oc2cc(OC)ccc12  353%
2. CC(C)=CCOc1cc2oc(=O)ccc2cc1O  287%
3. CC(=O)O[C@@H]1CC2C(C)(C)[C@H](O)C[C@H](O)[C@]2(C)C2CC[C@@]3(C)C(=CC(=O)O[C@H]3c3ccoc3)[C@@]21C (stereo partly shown)  228%
4. CCOC(=O)c1c(C)cc(OC)cc1O  224%
5. O=C(/C=C(\O)c1ccccc1)c1ccccc1O  207%
6. CC(=O)O[C@@H]1CC2C(C)(C)[C@H](O)C=C[C@]2(C)C2CC[C@]3(C)C(=CC(=O)O[C@H]3c3ccoc3)[C@@]21C (stereo partly shown)  200%
7. Nc1c2ccccc2nc2ccccc12  199%
8. Oc1ccc2c(c1)OCC1c3cc4c(cc3OC21)OCO4 (stereo not shown)  181%
9. COC(=O)C(O)c1ccccc1 (stereo not shown)  173%
10. c1coc(CNc2ncnc3[nH]cnc23)c1  171%
11. COc1cc(OC)c2c(c1)O[C@H](c1ccc(OC)c(OC)c1)[C@@H](O)C2  169%
12. CC(=O)Nc1ccc(OC(=O)c2ccccc2O)cc1  160%
13. CC(C)C1COc2cc3oc(=O)ccc3cc2O1 (stereo not shown)  153%
14. COc1ccc2oc(-c3ccccc3)c(OC)c(=O)c2c1  151%
15. COc1c(Cl)ccc(Cl)c1C(=O)O  146%
16. COC(=O)[C@]1(C)CC[C@]2(C)CC[C@]3(C)C4=CCc5c(cc(O)c(O)c5C)[C@]4(C)CC[C@@]3(C)C2C1 (stereo partly shown)  146%
17. CC(=O)O[C@H]1C[C@@H](O)C(C)(C)C2C[C@@H](OC(C)=O)[C@]3(C)C(CC[C@@]4(C)[C@H](c5ccoc5)OC(=O)C5OC543)[C@]21C (stereo partly shown)  143%
18. CC(=O)OC[C@H]1O[C@@H](Oc2cc(OC(C)=O)c3c(=O)cc(-c4ccc(OC(C)=O)cc4)oc3c2)[C@H](OC(C)=O)[C@@H](OC(C)=O)[C@@H]1OC(C)=O  133%
19. O=C(Nc1ccccc1)Nc1ccccc1  132%
20. Cc1cc(C)nc(NS(=O)(=O)c2ccc(N)cc2)n1  125%
21. COc1cc(N)c(Cl)cc1C(=O)NC1CCN(Cc2ccccc2)CC1.O=C(O)/C=C\C(=O)O  123%
22. CC1Cc2ccccc2N1NC(=O)c1ccc(Cl)c(S(N)(=O)=O)c1 (stereo not shown)  122%
23. COc1cc(NS(=O)(=O)c2ccc(N)cc2)ncn1  121%
24. CCCOc1ccccc1-c1nc2[nH]nnc2c(=O)[nH]1  117%
25. CC(C)CC(NC(=O)C(C)NC(=O)CNC(=O)C(NC=O)C(C)C)C(=O)NC(C)C(=O)NC(C(=O)NC(C(=O)NC(C(=O)NC(Cc1c[nH]c2ccccc12)C(=O)NC(CC(C)C)C(=O)NC(Cc1c[nH]c2ccccc12)C(=O)NC(CC(C)C)C(=O)NC(Cc1c[nH]c2ccccc12)C(=O)NC(CC(C)C)C(=O)NC(Cc1c[nH]c2ccccc12)C(=O)NCCO)C(C)C)C(C)C)C(C)C (stereo not shown) (For-VGALAVVVWLWLWLW-NHCH2CH2OH; configuration not given here)  117%
26. COc1cc(-c2coc3cc(OCc4ccccc4)c(OC)c(O)c3c2=O)cc(OCc2ccccc2)c1OC  113%
27. C[C@@H]1CCC[C@H](C)N1NC(=O)c1ccc(Cl)c(S(N)(=O)=O)c1  113%
28. CCC(N)C(O)c1ccc(O)c(O)c1.Cl (stereo not shown)  111%
29. C[N+](C)(C)CCOC(N)=O.[Cl-]  110%
30. O=c1c(O)cccc2c([C@H]3Oc4cc(O)cc(O)c4C[C@@H]3O)cc(O)c(O)c12  110%
31. CC(=O)OCC(OC(C)=O)C(OC(C)=O)C(OC(C)=O)C(OC(C)=O)C(COC(C)=O)OC(C)=O (stereo not shown)  108%
32. CCCCCCCCCCCCCCCC(=O)OC/C=C(C)/C=C/C=C(C)/C=C/C1=C(C)CCCC1(C)C  105%
33. CN[C@@H]1[C@@H](O[C@H]2O[C@H](CO)[C@@H](N)[C@H](O)[C@H]2O)O[C@H]2C[C@@H](N)[C@H](O[C@H]3[C@H](O)[C@@H](O)[C@H](N)C[C@@H]3N)O[C@@H]2[C@@H]1O  105%
34. O=c1ccc2ccccc2o1  104%
35. CC1(C)C(=O)C=C[C@@]2(C)C1C[C@@H](O)[C@]1(C)C2CC[C@@]2(C)[C@H](c3ccoc3)OC(=O)[C@H]3O[C@]321 (stereo partly shown)  103%
36. CNc1ccccc1C(=O)O  102%
37. O=C(/C=C/c1ccc(O)c(O)c1)O[C@H](Cc1ccc(O)c(O)c1)C(=O)O  101%
38. CC(C)C[C@H]1C(=O)N2CCC[C@H]2[C@]2(O)O[C@](NC(=O)[C@@H]3C=C4c5cccc6[nH]c(Br)c(c56)C[C@H]4N(C)C3)(C(C)C)C(=O)N12.CS(=O)(=O)O  101%
39. COC(=O)[C@H](Cc1ccccc1)NC(=O)[C@@H](N)CC(=O)O (H-Asp-Phe-OMe)  100%
40. CCOC(=O)C1C(C=C(C)C)C1(C)C (stereo not shown)  99%
41. O=c1ccc2ccc(O)c(O)c2o1  99%
42. COC1=C[C@@H]2[C@@H]3Cc4ccc(OC)c(O)c4[C@]2(CCN3C)CC1=O  98%
43. NCCC(=O)N[C@@H](Cc1c[nH]cn1)C(=O)O  97%
44. OC1CC2CCCC(C1)N2Cc1ccccc1 (stereo not shown)  93%
45. CC(C)c1nc(N(C)S(C)(=O)=O)nc(-c2ccc(F)cc2)c1/C=C/[C@@H](O)C[C@@H](O)CC(=O)[O-].[Ca+2]  93%
46. NC[C@H](O)c1ccc(O)c(O)c1  92%
47. CCN(CC)CCOC(=O)c1ccc(N)cc1.Cl  90%
48. Nc1nc2c(ncn2COCCO)c(=O)[nH]1  89%
49. CC(=O)/C=C\[C@@H]1[C@@]2(C)CCCC(C)(C)C2CC[C@@]1(C)O (stereo partly shown)  89%
50. Cc1[nH]c2ccccc2c1CN(C)C  88%
51. COc1c(CC=C(C)C)c2c(c3oc(=O)c(-c4ccc(O)cc4)c(O)c13)C=CC(C)(C)O2  75%
52. CC1CCC(NC(=O)N(CCCl)N=O)CC1 (stereo not shown)  74%
53. C/C=C(\C)C(=O)OC1[C@@H]2C=C3C4CC(=O)O[C@@H](c5ccoc5)[C@]4(C)CCC3[C@@](C)(C2=O)[C@@H](C(O)C(=O)OC)C1(C)C (stereo partly shown)  62%
54. CN1C(CC(=O)c2ccccc2)CCCC1CC(O)c1ccccc1.Cl (stereo not shown)  58%
55. CCOP(=S)(OCC)SCSCC  47%
